This is one part of the list. Repeats are few or missing, and single values can be far off.
What follows are molecules tested on 501Mel (assay: cell count relative to DMSO control; melanoma cells; higher = more viable cells). Conditions: library dose: standard library concentration; 72 h.
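Note: cells treated in 1,536-well plates, then fixed and DAPI-stained, with nuclei counted from automated high-throughput microscope images.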

| SMILES | cell count [%] |
| --- | --- |
| C[C@@H](Oc1cc(-c2cnn(C3CCNCC3)c2)cnc1N)c1c(Cl)ccc(F)c1Cl [Crizotinib] + O=c1cc(-c2cccc3c2Sc2ccccc2S3)oc(N2CCOCC2)c1 [KU55933] (first compound 1 µM, partner dose 5 µM) | 118 |
| C=CCNC1=C2C[C@@H](C)C[C@H](OC)[C@H](O)[C@@H](C)/C=C(\C)[C@H](OC(N)=O)[C@@H](OC)/C=C\C=C(/C)C(=O)NC(=CC1=O)C2=O [Tanespimycin] + c1cc(-c2cnn3cc(-c4ccc(OCCN5CCCCC5)cc4)cnc23)ccn1 [Dorsomorphin] (first compound 0.01 µM, partner dose 2 µM) | 57.7 |
| C=CCNC1=C2C[C@@H](C)C[C@H](OC)[C@H](O)[C@@H](C)/C=C(\C)[C@H](OC(N)=O)[C@@H](OC)/C=C\C=C(/C)C(=O)NC(=CC1=O)C2=O [Tanespimycin] + Cc1cc([N+](=O)[O-])ccc1NS(=O)(=O)c1cc(Cl)ccc1Cl [FH535] (first compound 0.01 µM, partner dose 5 µM) | 74.6 |
| C=CCNC1=C2C[C@@H](C)C[C@H](OC)[C@H](O)[C@@H](C)/C=C(\C)[C@H](OC(N)=O)[C@@H](OC)/C=C\C=C(/C)C(=O)NC(=CC1=O)C2=O [Tanespimycin] + O=C(O)C(=O)Nc1sc2c(c1C(=O)O)CCNC2 [TCS401] (first compound 0.01 µM, partner dose 8.33333 µM) | 87.7 |
